# Results taken from PubChem BioAssay AID463173 (ICCB-Longwood Screening Facility, Harvard Medical School, 2010).
# Out of some 52,000 compounds screened, about 1,700 (3.3%) were called active. No stated cut-off is given here; in the data, active means survival mostly below about 52% (no sharp cut-off); inactive means mostly above about 56%. The list shows a part of the results.
# System: Wild type
# Test: growth inhibition of S. aureus wild type versus tarO mutant, primary screen, teichoic acid synthesis inhibitors, RN4220, OD600 (AID 463173)
# Settings: S. aureus RN4220 wild type/DeltatarO growth, OD600, 18 h, active compounds read low, screened at 18.75 µg/mL (by protocol)
row,SMILES,survival
1,COc1ccccc1C(=O)CC1(O)C(=O)N(CC(N)=O)c2ccccc21 (stereo not drawn),inactive: 65%
2,Cc1ccc(C(=O)NC2CCN(C(=O)NC3CCCCC3)CC2)cc1,inactive: 103%
3,O=C(CN1C(=O)COc2ccc(S(=O)(=O)N3CCCCCC3)cc21)N1CCN(c2cccc(Cl)c2)CC1,inactive: 77%
4,CC(C)(C)OC(=O)N1CCC(c2c(C(=O)O)cnn2-c2ccc(F)cc2F)CC1,inactive: 77%
5,CCOC(=O)c1c(NC(=O)CN(CC)CC)sc2c1CCC/C2=N\O,inactive: 112%
6,CCNC(=O)NC1(C(=O)Nc2ccc3c(c2)OCCO3)CCCCC1,inactive: 113%
7,O=C(C1COc2cc(S(=O)(=O)Nc3ccc(Cl)cc3)ccc2O1)N1CCCC1 (stereo not drawn),inactive: 78%
8,Fc1ccc(-c2nnc(CN3CCN(c4ccccn4)CC3)o2)cc1,inactive: 90%
9,COc1ccc(C(=O)c2cn(Cc3ccc(F)cc3)c3c(F)cc(F)cc3c2=O)cc1,inactive: 133%
10,CCOC(=O)c1ccc(NC(=O)NC2CC3CCC(C2)N3C(=S)NCc2ccco2)cc1 (stereo not drawn),inactive: 112%
11,O=C(NCc1ccco1)c1nc2c(nnn2Cc2cccc(Cl)c2)c(=O)[nH]1,inactive: 109%
12,O=C(Cn1ncc2c3ccccc3n(Cc3ccccc3)c2c1=O)NCc1ccccc1,inactive: 90%
13,COC(=O)c1c(NC(=O)CCCOc2cccc(C)c2)sc2c1CCC(C)C2 (stereo not drawn),active: 4%
14,CC(C)NS(=O)(=O)c1ccc(OCC(=O)N2CCN(c3cccc(Cl)c3)CC2)cc1,inactive: 116%
15,COc1cc(C2C(C(=O)Nc3ccccc3)=C(C)Nc3nc(SCC(=O)c4ccc(C)cc4)nn32)ccc1O (stereo not drawn),inactive: 97%
16,CCc1ccccc1N(C)C(=O)c1cc2c(s1)-c1c(C)cccc1OC2,inactive: 69%
17,Cc1ccc(Cn2c(C)c(CNCc3ccccc3F)c(C(=O)O)c2C)cc1,inactive: 92%
18,COC(=O)c1cccc(S(=O)(=O)N2CCOCC2)c1,inactive: 115%
19,CCOC(=O)c1ccc(N2C(=O)c3n[nH]c(-c4ccco4)c3C2c2cccc(F)c2)cc1 (stereo not drawn),inactive: 13%
20,Cc1ccc(NC(=O)CSc2nc3ccc(NC(=O)c4cccc(Cl)c4)cc3s2)c(C)c1,inactive: 87%

row,SMILES,survival
1,COc1ccccc1C(=O)Nc1ccc(-c2nc3cc(C)cc(C)c3o2)cc1,inactive: 151%
2,CCc1ccc(S(=O)(=O)c2nnn3c2nc(N2CCN(CC)CC2)c2sccc23)cc1,inactive: 88%
3,O=C(Nc1ccc(F)cc1)N1CCCC(c2nc3c(nnn3Cc3ccccc3Cl)c(=O)[nH]2)C1 (stereo not drawn),inactive: 114%
4,Cc1nc2sc(C)c(C)n2c(=O)c1S(=O)(=O)NCCc1ccc(Cl)cc1,inactive: 109%
5,O=C(C1CCCN(S(=O)(=O)c2cccs2)C1)N1CCN(c2ccccc2F)CC1 (stereo not drawn),inactive: 92%
6,CN1C(=O)c2ccccc2Sc2ccc(NC(=O)NCc3ccccc3Br)cc21,inactive: 73%
7,Cc1ccc(CN(Cc2cccn2-c2nnc(N3CCCC3=O)s2)C(=O)Nc2cc(C)cc(C)c2)cc1,inactive: 123%
8,COc1ccc(-c2nc3c(c(SCC(=O)Nc4cc(C)cc(C)c4)n2)Cc2c(CO)cnc(C)c2O3)cc1,inactive: 85%
9,COc1cccc(CN2C(=O)C3(SCC(=O)N3c3ccc(F)cc3)c3ccccc32)c1 (stereo not drawn),inactive: 91%
10,O=C1c2ccccc2C(=O)N1c1ncn[nH]1,inactive: 113%
11,CCCNS(=O)(=O)c1ccc(CCC(=O)NCC2CCCO2)cc1 (stereo not drawn),inactive: 126%
12,Cc1ccc(CN(Cc2ccco2)C(=O)c2ccccc2Cl)o1,inactive: 96%
13,CCn1c(SC)nnc1C1CCCN(Cc2ccccc2)C1 (stereo not drawn),inactive: 109%
14,O=C(NCc1cccc(Cl)c1)c1ccc2c(c1)nc1n2CCOC1,inactive: 71%
15,CC(=O)c1ccc(NC(=O)c2cn(C)c(=O)c3ccccc23)cc1,inactive: 94%
16,CC1Cc2ccccc2N1C(=O)CSc1nnnn1Cc1ccccc1 (stereo not drawn),inactive: 91%
17,CCOc1ccc2nc(NC3=NCCC(=O)N3)nc(C)c2c1,inactive: 109%
18,Cc1cccc(N2CCN(C(=O)CCNS(=O)(=O)c3ccc4c(c3)CCN4C(=O)C3CC3)CC2C)c1 (stereo not drawn),inactive: 70%
19,O=C(NC1CC(=O)N(c2ccccc2)C1)c1cccs1 (stereo not drawn),inactive: 73%
20,c1ccc(CNc2ncnc3[nH]ncc23)cc1,inactive: 101%

row,SMILES,survival
1,CCOC(=O)N1CCc2c(sc3c2c(=O)n(CCc2ccccc2)c(=O)n3Cc2ccc(C)cc2C)C1,inactive: 77%
2,COc1ccc(-c2nc(CCNC(=O)Cc3ccc(F)cc3)cs2)cc1,inactive: 134%
3,Cc1ccc2[nH]c3nc(NN)nnc3c2c1,inactive: 121%
4,Cc1cccc(C(=O)Nc2nc3c(s2)CCCC3)c1,inactive: 75%
5,CCOCCc1nn2c(=O)cc(COC(=O)c3ccccc3NC(=O)c3cccs3)nc2s1,inactive: 49%
6,CSc1ccc(CCNC(=O)c2ccc3c(c2)nc2n3CCC(C)C2)cc1 (stereo not drawn),inactive: 75%
7,COc1ccc(N2CCN(C(=O)c3c(C)nn(-c4ccc(F)cc4)c3-n3cccc3)CC2)cc1,inactive: 68%
8,CCc1ccccc1NC(=O)N1CC(CC)Oc2ccc(Cl)cc21 (stereo not drawn),inactive: 81%
9,CC1CCN(c2oc(-c3cccs3)nc2S(=O)(=O)c2ccc(Cl)cc2)CC1,active: -8%
10,Cc1ccc(CNC(=O)c2ccc(-n3c(C)cc4c3CCCC4)cc2)cc1,inactive: 71%
11,C/C(=N/NC(N)=S)c1ccc(Br)s1,inactive: 120%
12,COc1cc(OC)c(NC(=O)CSc2nccn2C)cc1Cl,inactive: 75%
13,O=C(CSc1nc2cc(C(=O)NC3CCCC3)ccc2c(=O)n1CC1CCCO1)c1ccc(F)cc1 (stereo not drawn),inactive: 70%
14,CNC(=O)c1ccc2c(c1)N=C(C)c1cc(C)ccc1S2,inactive: 80%
15,Cc1ccc(C)c(S(=O)(=O)c2cn(Cc3ccccc3)c3cc(F)c(F)cc3c2=O)c1,inactive: 83%
16,Cc1ccc(OCC(=O)Nc2ccc3nc(SCC(=O)N4CCCC4)sc3c2)cc1,inactive: 91%
17,CCOC(=O)c1c(SCC(=O)Nc2nc3ccc(C)cc3s2)nc(=O)[nH]c1C,inactive: 81%
18,COc1ccc(Cn2nnnc2CN2CCN(C)CC2)cc1,inactive: 105%
